Out of some 390,000 compounds screened, about 4,000 (1%) were called active. This list was built around the results that the source calls inconclusive (neither active nor inactive); the mix of calls is not that of the screen. Calls follow the shape of the dose curve; as a rule, active = well fitted inhibition curve with a large enough effect; inconclusive = small, poorly fitted or top-dose-only effect; inactive = no such curve, though single readings can be large or run the other way. Potencies of inconclusive entries are doubtful fits and often do not repeat.
Target: Thioredoxin reductase 1, cytoplasmic (Rattus norvegicus) (UniProt O89049)
Assay: qHTS Assay for Inhibitors of Mammalian Selenoprotein Thioredoxin Reductase 1 (TrxR1): qHTS; also: nearly all actives have a fitted effect of over 65% in size
Conditions: recombinant rTrxR1, NADPH fluorescence consumption, selenite substrate; series mostly up to 114 µM; activity change, negative = inhibition: at the top concentration
Outline: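 Rat TrxR1 (90 nM in the dispensed reagent) was pre-reduced with 400 uM NADPH for 5 min at room temperature, then incubated with compound for 15 min. After 400 uM selenite was added, NADPH fluorescence (Ex 340/Em 450 nm) was followed for 8 min.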
% is scaled to controls: 0 for no effect and ±100 for the full control effect; potency is read from the fitted curve at half-maximal effect; tags tell the direction and shape of the fitted curve.

Chain of UniProt O89049 (O89049 whole entry, looked up): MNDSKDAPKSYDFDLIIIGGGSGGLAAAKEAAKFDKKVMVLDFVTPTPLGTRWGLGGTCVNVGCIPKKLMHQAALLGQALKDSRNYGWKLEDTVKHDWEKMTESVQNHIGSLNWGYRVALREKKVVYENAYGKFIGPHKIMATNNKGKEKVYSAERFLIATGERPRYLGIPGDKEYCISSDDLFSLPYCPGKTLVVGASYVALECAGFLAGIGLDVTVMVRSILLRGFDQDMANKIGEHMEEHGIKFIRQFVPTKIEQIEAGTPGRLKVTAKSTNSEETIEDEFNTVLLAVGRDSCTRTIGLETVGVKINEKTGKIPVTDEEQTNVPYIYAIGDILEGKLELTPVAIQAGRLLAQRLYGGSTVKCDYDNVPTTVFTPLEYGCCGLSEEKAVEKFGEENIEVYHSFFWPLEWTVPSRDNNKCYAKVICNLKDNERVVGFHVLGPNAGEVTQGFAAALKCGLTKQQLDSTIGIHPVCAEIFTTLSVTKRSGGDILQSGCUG

Row | SMILES | Potency | activity change, negative = inhibition
1 | CCn1cc(C(=O)N2CCN(C3CCCCC3)CC2)c2cc(OC)c(OC)cc2c1=O | inconclusive: 63.1 µM [inhibitor, single point] | –
2 | Cn1cnnc1SCc1ccc(-c2ccc(Br)cc2)o1 | inconclusive: 17.8 µM [inhibitor, full curve] | –
3 | CN(C)S(=O)(=O)c1cccc(NC(=S)NC(=O)c2ccco2)c1 | inconclusive: 22.4 µM [inhibitor, partial curve] | –
4 | Cc1c(Nc2cc(Cl)c3nonc3c2[N+](=O)[O-])c(=O)n(-c2ccccc2)n1C | active: 0.631 µM | –
5 | O=P(O)(CP(=O)(c1ccccc1)c1ccccc1)c1ccccc1O | inconclusive: 7.94 µM [inhibitor, partial curve, poor fit] | –
6 | Cc1ccccc1N/N=C/c1ccc(N2CCOCC2)cc1 | inconclusive: 22.4 µM [inhibitor, single point] | –
7 | CC(C)Sc1ncc(Cl)c(C(=O)N(Cc2ccc(F)cc2)C2CCS(=O)(=O)C2)n1 (stereo not drawn) | – | inactive: 19.7%
8 | Cc1nn(Cc2ccccc2)c2c1C(c1cccnc1)C(C#N)=C(N)O2 (stereo not drawn) | inconclusive: 35.5 µM [inhibitor, partial curve, poor fit] | –
9 | CN(CC(=O)Nc1cccc(F)c1)C(=O)c1ccc(-c2ccc(Cl)cc2)o1 | inconclusive: 70.8 µM [inhibitor, partial curve] | –
10 | CCOC(=O)C(C(C)=O)c1c(Br)c(O)c(O)c2c(C(=O)c3ccc(C)cc3)coc12 (stereo not drawn) | inconclusive: 7.08 µM [inhibitor, full curve] | –
11 | CCOC(=O)CN1C(=O)S/C(=C/c2ccc(C)o2)C1=O | inconclusive: 25.1 µM [inhibitor, partial curve, poor fit] | –
12 | Cc1ccc(Cl)cc1NC(=S)N(Cc1ccccc1)Cc1cccnc1 | inconclusive: 22.4 µM [inhibitor, partial curve] | –
13 | CCCCc1cc(=O)oc2c(CN3CCN(C)CC3)c(O)ccc12 | inconclusive: 70.8 µM [inhibitor, single point] | –
14 | COc1ccc(CCN2C(=O)C3C4C=CC(C5CC45)C3C2=O)cc1OC (stereo not drawn) | – | inactive: 3.63% [at 57.1 µM]
15 | CCc1cccc(C)c1NC(=O)CSc1nc2ccccc2nc1N1CCOCC1 | – | inactive: 38.5%
16 | CCCCC(=Nc1ccc(N)cc1)C1=C(O)C(C(=O)OC)C(C)(C)CC1=O (stereo not drawn) | inconclusive: 44.7 µM [inhibitor, partial curve] | –
17 | COc1cc2c(cc1OC)C(SC)=NC(C)(C)C2 | inconclusive: 22.4 µM [inhibitor, single point] | –
18 | CC(=O)c1cccc(NC(=S)Nc2ccn(Cc3cccc4ccccc34)n2)c1 | inconclusive: 14.1 µM [inhibitor, full curve] | –
19 | O=c1cc(CSc2nnc(COc3ccccc3Cl)o2)nc2sccn12 | – | inactive: 6.1%
20 | CCOc1ccccc1NC(=O)c1nc2nc(C)cc(C(F)F)n2n1 | – | inactive: 12.6% [at 57.1 µM]
21 | Oc1ccc(Nc2nc3ccccc3nc2Nc2ccc(O)cc2)cc1 | inconclusive: 17.8 µM [inhibitor, single point] | –
22 | Cc1c(NC(=O)c2ccc([N+](=O)[O-])o2)cccc1-c1nc2ncccc2o1 | – | inactive: -11.6%
23 | O=C(Nc1nc(=S)ss1)c1ccc(Cl)cc1Cl | – | inactive: 19.5% [at 57.1 µM]

Row | SMILES | Potency | activity change, negative = inhibition
24 | COc1ccc(OC)c(NS(=O)(=O)c2ccc3[nH]c4c(c3c2)CCCCC4)c1 | inconclusive: 100 µM [inhibitor, single point] | –
25 | CNC(C)C#Cc1ccc2sc3cccc(OC)c3c(=O)c2c1 (stereo not drawn) | inconclusive: 56.2 µM [inhibitor, partial curve, poor fit] | –
26 | C/C(=N\N(c1ccccc1)c1ccccc1)c1ccco1 | – | inactive: -13.2%
27 | O=C(CN1CCC(c2nc3ccccc3s2)CC1)NCc1ccccc1 | inconclusive: 79.4 µM [inhibitor, single point] | –
28 | C=CCn1c(SCC(C)=O)nc2scc(-c3ccco3)c2c1=O | inconclusive: 39.8 µM [inhibitor, partial curve] | –
29 | O=C(c1ccco1)N(CCC(c1ccccc1)c1ccco1)Cc1ccc(F)cc1 (stereo not drawn) | inconclusive: 7.08 µM [inhibitor, full curve] | –
30 | Cc1cc(=O)oc2c(CN3CCC(C)CC3)c(O)c(Cl)cc12 | inconclusive: 79.4 µM [inhibitor, single point] | –
31 | O=C(Nc1nccs1)C1CCN(S(=O)(=O)c2ccc(F)cc2)CC1 | – | inactive: 19.3%
32 | O=C(/C=C/c1ccco1)c1ccc(NC(=O)C23CC4CC(CC(C4)C2)C3)cc1 | inconclusive: 22.4 µM [inhibitor, single point] | –
33 | CSc1ccc(CCNC(=O)CSc2ccsc2[N+](=O)[O-])cc1 | inconclusive: 10 µM [inhibitor, full curve, poor fit] | –
34 | CCOC(=O)c1sc(NC(=O)CSc2n[nH]c(-c3ccccc3)n2)c(C#N)c1C | inconclusive: 31.6 µM [inhibitor, partial curve, poor fit] | –
35 | N#CC1=C(N)NC(=S)C(C(N)=O)C1c1ccc(Cl)cc1Cl (stereo not drawn) | – | inactive: -50%
36 | O=c1[nH][nH]c(-c2ccccc2O)c1C(C[N+](=O)[O-])c1ccc(Br)cc1 (stereo not drawn) | inconclusive: 56.2 µM [inhibitor, single point] | –
37 | CCn1c2ccccc2c2cc(CN3CCN(Cc4cc(OC)ccc4O)CC3)ccc21 | – | inactive: -0.568%
38 | Cc1ccc(Cl)cc1N1CCN(C(=O)c2cc3c(=O)[nH]c4ccccc4c3n2C)CC1 | – | inactive: -2.57% [at 57.1 µM]
39 | CCOC(=O)c1ccccc1NC1CC(=O)N(c2ccccc2C)C1=O (stereo not drawn) | inconclusive: 28.2 µM [inhibitor, full curve] | –
40 | COCC(C)NC(=O)COCc1cc(-c2ccc3c(c2)OCO3)on1 (stereo not drawn) | inconclusive: 17.8 µM [inhibitor, partial curve] | –
41 | O=C(/C=C/c1ccco1)N1CCN(c2ccc(F)cc2)CC1 | inconclusive: 79.4 µM [inhibitor, partial curve] | –
42 | C(=N\Nc1nc(-c2ccccc2)cs1)/c1cccnc1 | – | inactive: -16.2%
43 | O=C(O)/C(=C\c1ccco1)NC(=O)c1ccccc1 | – | inactive: -25.9%
44 | O=c1ccc(-c2ccc(S(=O)(=O)Nc3cccc(Br)c3)o2)n[nH]1 | inconclusive: 70.8 µM [inhibitor, partial curve] | –
45 | COc1cccc(C(c2c(C)[nH]n(-c3ccccc3)c2=O)c2c(C)[nH]n(-c3ccccc3)c2=O)c1OC | inconclusive: 25.1 µM [inhibitor, partial curve, poor fit] | –
46 | Cc1ccc(-c2nn(-c3ccccc3)cc2CO)o1 | – | inactive: -21.7%

Row | SMILES | Potency | activity change, negative = inhibition
47 | CCOC(=O)c1ccc(N2C(=O)c3n[nH]c(-c4ccco4)c3C2c2ccc(O)c(OC)c2)cc1 (stereo not drawn) | inconclusive: 3.98 µM [inhibitor, full curve] | –
48 | CC(=O)n1c(C=Nc2ccc(Cl)cc2)c(O)c2ccccc21 | inconclusive: 39.8 µM [inhibitor, full curve] | –
49 | C(=C\c1ccccc1)/CSc1nnc(-c2ccccc2)n1Cc1ccco1 | inconclusive: 35.5 µM [inhibitor, partial curve] | –
50 | Cc1ccc(N)cc1O | inconclusive: 20 µM [inhibitor, full curve] | –
51 | NC(=O)c1cc(-c2ccccc2)sc1NC(=O)Cc1ccc(S(=O)(=O)N2CCOCC2)s1 | inconclusive: 50.1 µM [inhibitor, partial curve, poor fit] | –
52 | COc1ccc(/C=N/NC(=O)c2cccc(NC(=O)c3ccccc3)c2)c(C(=O)O)c1OC | inconclusive: 89.1 µM [inhibitor, single point] | –
53 | Cc1cc(Br)ccc1SCC(=O)OCC(=O)N1CCN(C(=O)c2ccco2)CC1 | inconclusive: 25.1 µM [inhibitor, single point] | –
54 | COc1ccc(C)cc1NC(=S)NNC(=O)c1c(Br)cnn1C | inconclusive: 70.8 µM [inhibitor, partial curve] | –
55 | O=S(=O)(NCc1csc(-c2cccnc2)n1)c1ccc(Cl)s1 | – | inactive: 8.06% [at 57.1 µM]
56 | Oc1cc(NCCc2cccnc2)cc2cccnc12 | inconclusive: 20 µM [inhibitor, single point] | –
57 | C/C(CC(=O)NCCCN1CCOCC1)=N\NC(=O)COc1ccc(C)cc1 | inconclusive: 89.1 µM [inhibitor, single point] | –
58 | COc1ccc(S(=O)(=O)N2CCN(C(=O)C3COc4ccccc4O3)CC2)cc1 (stereo not drawn) | active: 50.1 µM | –
59 | C=CCN1C(=O)/C(=c2\sc3nc(=O)c(Cc4ccccc4Cl)nn3c2=O)c2ccccc21 | inconclusive: 35.5 µM [inhibitor, single point] | –
60 | O=C(CN1C(=O)/C(=C\c2cccc(Br)c2)Oc2ccccc21)NCCCN1CCOCC1 | – | inactive: 41.1%
61 | Cc1ccc(NC(=O)C2C3C=CC(O3)C2C(=O)O)c(C)c1 (stereo not drawn) | inconclusive: 79.4 µM [inhibitor, single point] | –
62 | C=CCn1c(C)c(C(C)=O)c(N2CCN(C(c3ccccc3)c3ccccc3)CC2)nc1=S | – | inactive: 0.243% [at 57.1 µM]
63 | CCn1c(SCC(=O)N/N=C/C=C/c2ccco2)nnc1-c1ccccc1 | active: 35.5 µM | –
64 | O=S(=O)(NCC(c1cccnc1)N1CCN(c2ccccc2)CC1)c1cc(F)ccc1F (stereo not drawn) | inconclusive: 79.4 µM [inhibitor, single point] | –
65 | CCC(=O)N(C)CCc1cc2c(c(OC)c1/C=N/NC(=O)c1ccncc1)OCO2 | inconclusive: 25.1 µM [inhibitor, partial curve, poor fit] | –
66 | O=S(=O)(Nc1nc2ccccc2s1)c1ccc(Br)s1 | inconclusive: 15.8 µM [inhibitor, partial curve, poor fit] | –
67 | O=C(Nc1cccc(Br)c1)c1ccc(CN2CCc3ccccc3C2)cc1 | – | inactive: 11.3%
68 | COc1ccc(C(=O)/C=C2\NCC3c4ccccc4CCN3C2=O)cc1 (stereo not drawn) | inconclusive: 22.4 µM [inhibitor, partial curve, poor fit] | –

From PubChem BioAssay AID588453 (National Center for Advancing Translational Sciences (NCATS), 2011)
